Experiment [1] addresses Adenosine kinase 2 (ADK2), yeast two-hybrid fusion (Arabidopsis) (UniProt Q9LZG0). Kind of experiment: two-hybrid; baits as GAL4 DNA binding domain fusions, preys as GAL4 activation domain fusions, yeast Y190; growth on medium lacking histidine with 50 mM aminotriazole; LacZ filter-lift assay.
Experiment [2] deals with Adenosine kinase 2 (ADK2), full-length, fused to the N- or C-terminal portion of YFP (BiFC) (Arabidopsis) (UniProt Q9LZG0). Kind of experiment: split reporter; BiFC of YFP (YN + YC fusions) in N. benthamiana leaf epidermal cells, agroinfiltration, confocal microscopy 48 h post-infiltration.
The target of experiment [3] is Dicer-like 4 (DCL4), full-length, fused to the N- or C-terminal portion of YFP (BiFC) (UniProt P84634). The experiment is described as above.

The chains behind the UniProt entries cited, without tags or fusion partners.
UniProt Q9LZG0: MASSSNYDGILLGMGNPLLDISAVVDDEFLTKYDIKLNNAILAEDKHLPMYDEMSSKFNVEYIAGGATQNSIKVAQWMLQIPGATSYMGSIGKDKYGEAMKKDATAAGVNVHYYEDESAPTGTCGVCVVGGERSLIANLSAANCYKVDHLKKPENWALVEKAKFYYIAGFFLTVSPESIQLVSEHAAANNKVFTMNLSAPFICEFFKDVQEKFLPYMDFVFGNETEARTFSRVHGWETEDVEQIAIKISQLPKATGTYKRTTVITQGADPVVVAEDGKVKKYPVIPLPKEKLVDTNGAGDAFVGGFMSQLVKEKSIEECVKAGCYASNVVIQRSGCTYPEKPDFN
UniProt P84634: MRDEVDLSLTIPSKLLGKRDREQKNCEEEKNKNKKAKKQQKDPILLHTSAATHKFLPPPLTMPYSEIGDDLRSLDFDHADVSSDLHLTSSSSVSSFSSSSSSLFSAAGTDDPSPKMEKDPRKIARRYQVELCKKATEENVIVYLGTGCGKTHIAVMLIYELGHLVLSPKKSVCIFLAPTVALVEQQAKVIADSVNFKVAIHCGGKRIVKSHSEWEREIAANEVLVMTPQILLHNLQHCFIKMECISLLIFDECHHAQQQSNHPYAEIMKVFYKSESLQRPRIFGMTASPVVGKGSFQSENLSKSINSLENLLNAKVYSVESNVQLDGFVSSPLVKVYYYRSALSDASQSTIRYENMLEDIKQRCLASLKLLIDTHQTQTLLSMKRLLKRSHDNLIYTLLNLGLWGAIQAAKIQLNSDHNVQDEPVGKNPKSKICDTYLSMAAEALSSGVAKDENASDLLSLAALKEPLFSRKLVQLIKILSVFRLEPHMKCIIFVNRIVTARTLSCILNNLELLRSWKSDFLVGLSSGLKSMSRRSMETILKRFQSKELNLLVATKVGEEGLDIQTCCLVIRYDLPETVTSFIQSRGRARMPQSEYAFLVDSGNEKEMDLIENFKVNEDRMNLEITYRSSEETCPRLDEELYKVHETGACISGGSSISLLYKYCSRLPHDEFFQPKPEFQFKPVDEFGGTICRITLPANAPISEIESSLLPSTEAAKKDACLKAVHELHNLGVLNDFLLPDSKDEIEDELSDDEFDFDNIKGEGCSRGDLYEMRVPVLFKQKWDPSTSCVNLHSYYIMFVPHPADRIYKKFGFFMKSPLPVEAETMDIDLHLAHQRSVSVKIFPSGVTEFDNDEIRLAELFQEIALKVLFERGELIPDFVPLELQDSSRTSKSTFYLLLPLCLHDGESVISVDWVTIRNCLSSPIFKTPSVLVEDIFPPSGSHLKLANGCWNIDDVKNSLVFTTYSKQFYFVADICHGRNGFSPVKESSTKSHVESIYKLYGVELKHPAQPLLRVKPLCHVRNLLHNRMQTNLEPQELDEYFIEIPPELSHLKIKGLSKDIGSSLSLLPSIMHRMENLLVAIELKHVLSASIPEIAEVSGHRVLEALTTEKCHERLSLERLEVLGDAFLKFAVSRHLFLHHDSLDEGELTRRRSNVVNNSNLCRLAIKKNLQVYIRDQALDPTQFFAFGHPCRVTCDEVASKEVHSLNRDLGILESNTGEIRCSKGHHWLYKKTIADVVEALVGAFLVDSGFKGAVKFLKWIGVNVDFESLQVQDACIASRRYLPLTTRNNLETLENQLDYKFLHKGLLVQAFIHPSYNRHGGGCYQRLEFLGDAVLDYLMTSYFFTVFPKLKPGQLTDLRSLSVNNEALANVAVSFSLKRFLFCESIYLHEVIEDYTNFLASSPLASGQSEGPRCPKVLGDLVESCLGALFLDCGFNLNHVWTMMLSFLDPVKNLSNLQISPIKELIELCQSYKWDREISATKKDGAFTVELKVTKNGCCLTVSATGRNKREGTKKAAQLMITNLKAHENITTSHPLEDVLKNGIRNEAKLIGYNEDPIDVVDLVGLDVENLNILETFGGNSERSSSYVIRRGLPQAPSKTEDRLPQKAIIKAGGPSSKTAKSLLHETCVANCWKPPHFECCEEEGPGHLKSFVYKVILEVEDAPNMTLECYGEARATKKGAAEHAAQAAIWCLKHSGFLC

These are yes or no findings as the source states them, for the method shown. For some of these results: Binding seen in cells or lysates may run through a third protein. Some binding calls cover weakened binding; strength is not graded here. Tags and fused reporters may be left off the sequences shown.

B1: SnRK1.2 kinase domain (SnRK1-KD; amino acids 1-343), yeast two-hybrid fusion (domain or fragment, UniProt P92958 1-343)
chain: MDHSSNRFGNNGVESILPNYKLGKTLGIGSFGKVKIAEHVVTGHKVAIKILNRRKIKNMEMEEKVRREIKILRLFMHPHIIRQYEVIETTSDIYVVMEYVKSGELFDYIVEKGRLQEDEARNFFQQIISGVEYCHRNMVVHRDLKPENLLLDSRCNIKIADFGLSNVMRDGHFLKTSCGSPNYAAPEVISGKLYAGPEVDVWSCGVILYALLCGTLPFDDENIPNLFKKIKGGIYTLPSHLSSEARDLIPRMLIVDPVKRITIPEIRQHRWFQTHLPRYLAVSPPDTVEQAKKINEEIVQEVVNMGFDRNQVLESLRNRTQNDATVTYYLLLDNRFRVPSGYL
As to B1, the binding entry in experiment [1] was “binds”.

B2: SnRK1.2 (SNF1-related kinase 1), full-length, yeast two-hybrid fusion (enzyme, UniProt P92958 1-512)
chain: MDHSSNRFGNNGVESILPNYKLGKTLGIGSFGKVKIAEHVVTGHKVAIKILNRRKIKNMEMEEKVRREIKILRLFMHPHIIRQYEVIETTSDIYVVMEYVKSGELFDYIVEKGRLQEDEARNFFQQIISGVEYCHRNMVVHRDLKPENLLLDSRCNIKIADFGLSNVMRDGHFLKTSCGSPNYAAPEVISGKLYAGPEVDVWSCGVILYALLCGTLPFDDENIPNLFKKIKGGIYTLPSHLSSEARDLIPRMLIVDPVKRITIPEIRQHRWFQTHLPRYLAVSPPDTVEQAKKINEEIVQEVVNMGFDRNQVLESLRNRTQNDATVTYYLLLDNRFRVPSGYLESEFQETTDSGSNPMRTPEAGASPVGHWIPAHVDHYGLGARSQVPVDRKWALGLQSHAHPREIMNEVLKALQELNVCWKKIGHYNMKCRWVPGLADGQNTMVNNQLHFRDESSIIEDDCAMTSPTVIKFELQLYKAREEKYLLDIQRVNGPQFLFLDLCAAFLTELRVI
On to B2, for which, in experiment [1], the binding entry is listed as “binds”.

B3: SnRK1.2, full-length, fused to the N- or C-terminal portion of YFP (BiFC) (enzyme, UniProt P92958 1-512)
chain: B2 chain
For B3, the binding result in experiment [2] was “binds”; in experiment [3] it was “no binding”.

These data come from PMC3907550.
